Measurements reported in PubChem BioAssay AID1345083 (National Center for Advancing Translational Sciences (NCATS), 2018).
The whole screen tested about 94,000 compounds, of which about 6,200 (6.6%) were called active. The shares of active, inactive and inconclusive entries below differ from those in the screen. Calls come from the whole dose curve; as a rule, active = well fitted inhibition curve with a large enough effect; inconclusive = small, poorly fitted or top-dose-only effect; inactive = flat fitted curve, though single readings scatter. Potencies of inconclusive entries are doubtful fits and often do not repeat.

Assay: Cytotoxic Profiling in HEK 293 Cell Line of Diverse Libraries Using Quantitative High-Throughput Screening; note: nearly all actives have a fitted effect of over 60% in size
Details: HEK 293 viability, ATP luminescence (CellTiter-Glo), 48-72 h; activity change, negative = cytotoxicity: at 115 µM (top of the series) unless noted; series mostly up to 115 µM
Procedure, shortened: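 Viability of HEK 293 cells, plated at 250 cells/well, was judged by cellular ATP after compound treatment for 48 or 72 hr. Luminescence was imaged 10 min after CellTiter-Glo addition at room temperature.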
% is set by controls: 0 for no effect and ±100 for the full control effect; potency is the fitted concentration of half-maximal effect; tags give direction and shape of the fitted curve.

Compound	Potency	activity change, negative = cytotoxicity	outcome
O=C(Cn1ccn2nc(-c3ccccc3)c(CO)c2c1=O)Nc1ccc(F)cc1F	inconclusive: 89.1 µM [inhibitor, single point]	–	–
CCc1ccccc1-n1nc(-c2c(C)nc3scc(CC(=O)NCc4ccccc4)n3c2=O)cc1C	inconclusive: 89.1 µM [inhibitor, single point]	–	–
Cc1cc(C)n(CCC(=O)N2CCC(c3noc(C4CC4)n3)C2)n1 (centres undefined)	–	inactive: -6.49%	–
CCc1ccccc1NC(=O)CN1C=C(C(=O)OC)C(C)=NS1(=O)=O	inconclusive: 89.1 µM [inhibitor, single point]	–	–
CCN1C(=O)C2CC3(CCN(C(=O)c4nn(C)c5ccccc45)CC3)CN2C1=O (centres undefined)	–	inactive: -19.5%	–
CCc1ccc(N2CC(c3noc(-c4ccc5c(c4)OCO5)n3)CC2=O)cc1 (centres undefined)	inconclusive: 89.1 µM [inhibitor, single point]	–	–
Cn1nc(C2CCCN(C(=O)c3ccccc3)C2)n(C2CCCC2)c1=O (centres undefined)	–	inactive: -19.9%	–
O=C(Nc1cccc(-c2ccco2)c1)C1CCN(Cc2ccc(CO)o2)CC1	inconclusive: 39.8 µM [inhibitor, full curve, poor fit]	–	–
COc1cc(CN2CCCC23Cc2ccccc2CNC3=O)ccc1F (centres undefined)	inconclusive: 50.1 µM [inhibitor, partial curve, poor fit]	–	–
CC(C)C[C@@H](NC(=O)[C@@]1(O)C[C@@H](O)[C@H](O)[C@@H](NC(=O)c2cccnc2)C1)C(N)=O	–	inactive: -5.74% [at 172 µM]	–
O=C1Nc2ccccc2C12CN(Cc1ccccc1)C2	inconclusive: 126 µM [inhibitor, single point]	–	–
CCNC(=O)N[C@@H]1C=C[C@@H](c2c(C)nn(-c3ccccc3[N+](=O)[O-])c2C)C1	inconclusive: 126 µM [inhibitor, single point]	–	–
CCN1C(=O)C2CC3(CCN(C(=O)CCc4c[nH]c5ccccc45)CC3)CN2C1=O (centres undefined)	–	inactive: -19.1%	–
COc1cccc(-c2ccc(CN3CCCC(NC(=O)c4ccc(Cl)nc4)C3)cc2)c1 (centres undefined)	active: 14.1 µM	–	–
Cc1cccc(C)c1N1C(C(=O)OCc2ccccc2)=C(O)c2ccccc2[S+]1(=O)[O-]	inconclusive: 8.91 µM [inhibitor, full curve, poor fit]	–	–
O=C(NC1CCN(c2nccc(Nc3ccccc3F)n2)CC1)c1ccccc1	inconclusive: 35.5 µM [inhibitor, partial curve]	–	–
COc1ccc(-c2noc(C(=O)O)c2[C@@H](C)NC(=O)CC(C)C)cc1	–	–	inactive [at 172 µM]
COc1ccc(C(C)NC(=O)c2c(C)sc3ccn(C)c(=O)c23)cc1 (centres undefined)	inconclusive: 79.4 µM [inhibitor, partial curve, poor fit]	–	–
CC(c1cccs1)N(C)C(=O)Nc1ccc(Cl)cc1 (centres undefined)	inconclusive: 100 µM [inhibitor, partial curve, poor fit]	–	–
COc1ccc(NC(=O)c2ccc3c(c2)OCC(=O)N(Cc2cnn(C)c2)C3)c(F)c1	inconclusive: 39.8 µM [inhibitor, full curve, poor fit]	–	–

Compound	Potency	activity change, negative = cytotoxicity	outcome
CCOCC1(C)COc2ccc(C(=O)NCc3cc(OC)cc(OC)c3)cc2N1 (centres undefined)	inconclusive: 112 µM [inhibitor, partial curve, poor fit]	–	–
Cc1ccc(NC(=O)N2CCC(CCNC(=O)CCc3ccccc3)CC2)cc1F	inconclusive: 89.1 µM [inhibitor, single point]	–	–
O=C([C@H]1O[C@H](CCN2CCN(Cc3ccccc3)CC2)CC[C@@H]1O)N1CCN(c2ccc(F)cc2)CC1	inconclusive: 50.1 µM [inhibitor, partial curve, poor fit]	–	–
CCCN1CCC2(CCN(C(=O)c3cccc(OC)c3)CC2)Oc2ccccc21	inconclusive: 56.2 µM [inhibitor, partial curve, poor fit]	–	–
O=C(Cc1ccc(F)cc1)NC1CCN(c2cc(-c3ccc(F)cc3)[nH]n2)CC1	inconclusive: 22.4 µM [inhibitor, full curve]	–	–
CCOC(=O)[C@H]1C[C@]2(CCCCN(CCOC)C2=O)N(C(=O)CCc2ccccc2)[C@H]1c1ccco1	inconclusive: 79.4 µM [inhibitor, partial curve, poor fit]	–	–
CN1c2cc(C(=O)Nc3ccc(C#N)cc3)ccc2C(=O)N2CCCCC21 (centres undefined)	inconclusive: 50.1 µM [inhibitor, partial curve, poor fit]	–	–
Cc1ccccc1-c1cnc2[nH]cc(CC(=O)Nc3ccn(C)n3)c2c1	inconclusive: 70.8 µM [inhibitor, partial curve, poor fit]	–	–
C#CCNC(=O)C1CCN(C(=O)c2ccc(-c3ccccc3OC)cc2)CC1	inconclusive: 89.1 µM [inhibitor, partial curve, poor fit]	–	–
Cc1ccc2nc3c(n2c1)C(c1ccccc1OCCN(C)C)CC(=O)NC3 (centres undefined)	–	–	inactive
O=C(NC1CCCC1)NC1CCCN(c2ccc3nnc(C4CC4)n3n2)C1 (centres undefined)	–	inactive: 2.28%	–
O=C(NCC(=O)N1CCOCC1)c1ccc(-c2cccc(C(F)(F)F)c2)cc1	inconclusive: 11.2 µM [inhibitor, full curve]	–	–
Cc1cc2nc3n(c(=O)c2n1CC(=O)Nc1ccc(F)cc1F)CCCCC3	inconclusive: 100 µM [inhibitor, single point]	–	–
Cc1ccsc1C(=O)Nc1ccc2c(N3CCCCC3)ncnc2c1	inconclusive: 35.5 µM [inhibitor, partial curve, poor fit]	–	–
CCc1ccc(CN2CCC([C@@H]3CNC[C@H]3CO)CC2)cc1	inconclusive: 44.7 µM [inhibitor, partial curve]	–	–
COc1cccc(-c2noc(CC3CCN(C(=O)CCc4ccccc4)CC3)n2)c1	inconclusive: 50.1 µM [inhibitor, partial curve, poor fit]	–	–
CN1c2cccnc2CN(CC2CCCCC2)CC[C@H]1CO	inconclusive: 112 µM [inhibitor, partial curve]	–	–
CNC(=O)N1CCC(C2CCN(C(=O)CCc3nc4ccccc4s3)C2)CC1 (centres undefined)	–	inactive: -15.5%	–
O=C([C@@H]1C[C@@H](O)[C@H](O)[C@@H]2NC(=S)N(c3ccc(F)cc3)[C@@H]21)N1CCCCC1	–	inactive: -2.29% [at 172 µM]	–
